Measurements reported in the supplement of paper PMC5655136.
These are enrichments in a pooled selection; single values are uncertain.

These sequences were tested on NB7 (assay: fold depletion of shRNA, plasmid library share / infected cells without Dox share (9 days) (ratio); higher = more depleted after infection (more toxic, leaky expression from a Tet-inducible vector; NB7 is a neuroblastoma line without caspase-8)). Conditions: shRNA pool: CD95 ORF + CD95 3'UTR + Venus libraries.
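Note: shRNA barcodes quantified by deep sequencing of PCR amplicons from cellular DNA, counts expressed as percent of each subpool, ratio averaged over two biological duplicates.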

| Sequence | fold depletion of shRNA |
| --- | --- |
| CTGAGCTACCAGTCCGCCCTG | 0.978 |
| AATACCAAGTGCAGATGTAAA | 0.805 |
| GCCTGCATCATGATGGCCAAT | 0.743 |
| AAATTCAGACTATCATCCTCA | 0.85 |
| TATATCACCGCCGACAAGCAG | 1.57 |
| GTGACCCTTGCACCAAATGTG | 0.667 |
| CAGACTGCGTGCCCTGCCAAG | 0.885 |
| TGAGACTCAGAACTTGGAAGG | 0.582 |
| GGTTTTTTACTGGGTACATTT | 1.27 |
| ACCACCGGCAAGCTGCCCGTG | 0.514 |
| AAAAATACTTAATAGTCCACC | 1.29 |
| ATTGGCATCAACTTCATGGAA | 1.59 |
| CACATTGATTAAAGATCTCAA | 0.555 |
| TCATCAAGAGTAAATGCAGTG | 0.906 |
| GACCCAGAATACCAAGTGCAG | 1.46 |
| GTCGAGCTGGACGGCGACGTA | 0.799 |
| AGAAGCGCGATCACATGGTCC | 2.62 |
| ATAAATTTATCTGATGTTGAC | 1.11 |
| CAAGGACGACGGCAACTACAA | 1.43 |
| AAGAATGACAATGTCCAAGAC | 2.58 |
| CATTTTTCTTCCAAATGCAGA | 0.905 |
| TGCTCTCAGAGAAAGTAGCTT | 1.3 |
| TTCTAAACTTTGTTTATAACT | 0.749 |

| Sequence | fold depletion of shRNA |
| --- | --- |
| GACTTGAGTAAATATATCACC | 1.17 |
| TTTTACCATATTTCTAAACTT | 0.75 |
| ACAACAAATTCAGTTCTGAGT | 1.74 |
| AAGGACGACGGCAACTACAAG | 1.41 |
| CCAGGTGAAAGGAAAGCTAGG | 0.897 |
| CACCCTCGTGACCACCCTGGG | 1.1 |
| GTTTTTTACTGGGTACATTTT | 2.28 |
| ACTTCAGAAATGAAATCCAAA | 0.793 |
| AATTTATCTGATGTTGACTTG | 1.92 |
| CATGGAAATATCACCAAAAAA | 0.809 |
| AACGTCTATATCACCGCCGAC | 2.22 |
| GAAGTACAGAAAACATGCAGA | 1.16 |
| ATCAAGGAATGCACACTCACC | 1.17 |
| ACCCCCAAGTTTCTAAGATTT | 0.752 |
| ACTCTTGCAGAGAAAATTCAG | 2.29 |
| GAGGTGAAGTTCGAGGGCGAC | 1.43 |
| TTGGTGTCATATTATACAATA | 0.907 |
| TCTTGCAGAGAAAATTCAGAC | 1.3 |
| GCCAAAATAGATGAGATCAAG | 0.398 |
| GTCCTGCTGGAGTTCGTGACC | 1.98 |
| ATAAACTGCACCCGGACCCAG | 2.02 |
| GCTACAAATGGCAGCTTATAC | 1.31 |
| ACAAGACCCGCGCCGAGGTGA | 0.591 |

| Sequence | fold depletion of shRNA |
| --- | --- |
| ATCACCGCCGACAAGCAGAAG | 1.12 |
| ACTGTATGTGAACACTGTGAC | 2.36 |
| CAGAAAGGAAAACCAAGGTTC | 1.8 |
| AAGCAGCACGACTTCTTCAAG | 3.72 |
| TTTAATATCTCATGATTCTGC | 1.14 |
| AAAAGGCAAGACTGCCCTTAG | 2.28 |
| AGACCCCAACGAGAAGCGCGA | 2.12 |
| TGCACAGTTTATTGGTGTCAT | 2.33 |
| ATTTTTAATATCTCATGATTC | 1.2 |
| CCTGAAGCTGATCTGCACCAC | 0.969 |
| AAATTATAATGTTTGACTATT | 0.869 |
| TGCTGGAGTCATGACACTAAG | 1.25 |
| AAGATTTAAGATTCTCCTTAC | 1.06 |
| AAACTGTGAAGATAGTTATAA | 0.758 |
| TGATTCTGTAGTATGAATGTA | 1.29 |
| CAACGTCTATATCACCGCCGA | 1.09 |
| GCAAGCTGACCCTGAAGCTGA | 1.31 |
| TATAAAATATAGGTAAAAGTA | 0.811 |
| AAGCACAGAAAGGAAAACCAA | 1.5 |
| CTTTGCACAGTTTATTGGTGT | 2.08 |
| GAGTACAACTACAACAGCCAC | 1.89 |
| ACTGGGTACATTTTATCATTT | 0.937 |
| GAACATGGAATCATCAAGGAA | 1.29 |
